Data taken from patent publication US9974867B2, “Cytotoxic benzodiazepine derivatives” (priority 2014, dated 2018).

Key:
NCI-H292 NSCLC cells = assay: In vitro cytotoxicity WST-8 assay, NCI-H292; assay type: cell-based; details: presence of excess unconjugated antibody
Description: (§1) The ability of huML66-sulfo-SPDB-1d conjugate to inhibit cell growth was measured using in vitro cytotoxicity assays. Target cells were plated at 1-2,000 cells per well in 100 μL in complete RPMI media (RPMI-1640, 10% fetal bovine serum, 2 mM glutamine, 1% penicillin-streptomycin, all reagents from Invitrogen). Antibodies were diluted into complete RPMI media using 3-fold dilution series and 100 μL were added per well. The final concentration typically ranged from 3×10^−8 M to 4.6×10^−12 M. Cells were incubated at 37° C. in a humidified 5% CO2 incubator for 5-6 days. Viability of remaining cells was determined by colorimetric WST-8 assay (Dojindo Molecular Technologies, Inc., Rockville, Md., US). WST-8 is reduced by dehydrogenases in living cells to an orange formazan product that is soluble in tissue culture medium. The amount of formazan produced is directly proportional to the number of living cells. […] Plates were analyzed by measuring the absorbance at 450 nm (A450) in a multiwell plate reader. Background A450 absorbance of wells with media and WST-8 only was subtracted from all values. The percent viability was calculated by dividing each treated sample value by the average value of wells with untreated cells. […] Dose-response curves were generated by non-linear regression and the EC50 value of each curve was calculated using GraphPad Prism (GraphPad software, San Diego, Calif.). […]

NCI-H1703 NSCLC cells = assay: In vitro cytotoxicity WST-8 assay, NCI-H1703; assay type: cell-based; details: presence of excess unconjugated antibody
Description: as §1

[1] = tested on: NCI-H1703 NSCLC xenografts; assay: Antitumor activity of single dose against NCI-H1703 NSCLC xenografts (Example 11); assay type: in vivo, SCID mice
Description: Female CB.17 SCID mice, 6 weeks old, were received from Charles River Laboratories. Mice were inoculated with 5×10^6 NCI-H1703 tumor cells suspended in 0.2 ml 50% matrigel/serum free medium by subcutaneous injection in the right flank. When tumor volumes reached approximately 100 mm^3 (day 16 post inoculation), animals were randomized based on tumor volume into 4 groups of 6 mice each. Mice received a single IV administration of vehicle control (0.1 ml/mouse) or huML66-sulfo-SPDB-1d at 5, 20, or 50 μg/kg based on compound 1d concentration on day 1 (day 17 post inoculation).
Tumor size was measured twice to three times weekly in three dimensions using a caliper. The tumor volume was expressed in mm^3 using the formula V=Length×Width×Height×½. A mouse was considered to have a partial regression (PR) when tumor volume was reduced by 50% or greater, complete tumor regression (CR) when no palpable tumor could be detected. Tumor volume was determined by StudyLog software. Tumor growth inhibition (T/C Value) was determined using the following formula: T/C (%)=Median tumor volume of the treated/Median tumor volume of the control×100.
Tumor volume was determined simultaneously for treated (T) and the vehicle control (C) groups when tumor volume of the vehicle control reached predetermined size of 1000 mm^3. The daily median tumor volume of each treated group was determined, including tumor-free mice (0 mm^3). According to NCI standards, a T/C≤42% is the minimum level of anti-tumor activity. A T/C<10% is considered a high anti-tumor activity level.

Detroit-562 SCC-HN cells = assay: In vitro cytotoxicity WST-8 assay, Detroit-562; assay type: cell-based; details: presence of excess unconjugated antibody
Description: as §1

B1: huML66-sulfo-SPDB-1d (conjugate)
heavy: QVQLQESGPGLVKPSETLSLTCTVSGLSLASNSVSWIRQPPGKGLEWMGVIWNHGGTDYNPSIKSRLSISRDTSKSQVFLKMNSLTAADTAMYFCVRKGGIYFDYWGQGVLVTVSS[human IgG1 constant region cut from this listing]
light: DTVLTQSPSLAVSPGERATISCRASESVSTLMHWYQQKPGQQPKLLIYLASHRESGVPARFSGSGSGTDFTLTIDPMEAEDTATYYCQQSRNDPWTFGQGTKLELKRTVAAPSVFIFPPSDEQLKSGTASVVCLLNNFYPREAKVQWKVDNALQSGNSQESVTEQDSKDSTYSLSSTLTLSKADYEKHKVYACEVTHQGLSSPVTKSFNRGEC
EC50 (NCI-H292 NSCLC cells): ~0.7 nM
EC50 (NCI-H1703 NSCLC cells): ~1 nM
anti-tumor activity level ([1]; single IV 20 μg/kg based on compound 1d): highly active
anti-tumor activity level ([1]; single IV 50 μg/kg based on compound 1d): highly active
minimal effective dose (MED) ([1]; single IV dose): 0.02 mg/kg
EC50 (Detroit-562 SCC-HN cells): ~1 nM
